Assay results from PubChem BioAssay AID1346428 (National Center for Advancing Translational Sciences (NCATS), 2018).
Hit rate of the full screen: of about 48,000 compounds, about 1,200 (2.5%) were called active. Not shown: some 2% with an inconclusive outcome.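 How the source made its calls: active means activation of at least 60% and not above a set upper limit (about 1 call in 100 departs from these limits); inconclusive means activation of 40% to 60%, or above that upper limit; inactive means activation under 40%.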 The list shows a part of the results.

These molecules were tested against Probable G-protein coupled receptor 32 (Homo sapiens) (UniProt O75388) (assay: qHTS for Agonists of Human Resolvin D1 Receptor DRV1). Conditions: CHO-K1 GPR32 beta-arrestin PathHunter luminescence, 90 min; at 76.9 µM; stronger effect = higher value; zero percent set by DMSO-only wells.
UniProt O75388, sequence (O75388 whole entry, looked up, the tested form may be a part): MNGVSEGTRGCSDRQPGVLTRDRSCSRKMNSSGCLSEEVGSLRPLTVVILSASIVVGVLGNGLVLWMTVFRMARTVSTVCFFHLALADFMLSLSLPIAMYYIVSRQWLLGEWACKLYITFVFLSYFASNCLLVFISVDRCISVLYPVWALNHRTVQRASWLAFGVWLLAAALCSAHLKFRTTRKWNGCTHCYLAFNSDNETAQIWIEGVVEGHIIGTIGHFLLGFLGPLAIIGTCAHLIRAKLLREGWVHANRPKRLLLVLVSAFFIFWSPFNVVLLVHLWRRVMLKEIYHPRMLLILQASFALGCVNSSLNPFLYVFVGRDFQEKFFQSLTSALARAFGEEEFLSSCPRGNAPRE
Outline: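 Agonism was scored by beta-Gal fragment complementation (chemiluminescent read, 1 h detection at ambient temperature) reporting beta-arrestin binding to GPR32 in engineered CHO-K1 cells. Compound treatment lasted 90 min at 37 C, normalized to a DMSO basal control.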
Further: 0% is about no effect.

activation, inactive:
CC(=O)Nc1ccc(NC(=O)c2nc(S(=O)(=O)Cc3ccc(F)cc3)ncc2Cl)cc1 -19.9%, COc1cccc(CNC(=O)c2cnc3c(-c4ccc(F)cc4)c(C)nn3c2C)c1 -14.8%, Cc1ccc(C)c(NC(=O)CSc2nccn2-c2cccc(C)c2C)c1 10.9%, COc1ccc(C(=O)Nc2ccccc2-c2nc3ccccc3s2)cc1OC 8.11%, COc1ccc(-n2c(SCC(=O)NCc3ccc(Cl)cc3)nc3ccsc3c2=O)cc1 -2.55%, COc1ccc(-n2nnnc2C2CCN(S(=O)(=O)c3cccc(C(F)(F)F)c3)CC2)cc1 -2.43%, COc1cccc(NC(=O)C(Cc2ccccc2)N2Cc3ccccc3C2=O)c1 (configuration not stated) -1.64%, COc1nccnc1NS(=O)(=O)c1ccc(N)cc1 -6.01%, Cc1ccc(NC(=O)CCCc2nc(-c3ccco3)no2)cc1Cl -14.1%, COc1ccc(NS(=O)(=O)c2ccc(N3CCCCS3(=O)=O)cc2)cc1Cl 11.8%, CC(C)CCOc1ccc(C(=O)NCC2OCCc3ccccc32)cc1 (configuration not stated) 24.8%, COc1ccc(-c2noc(CCC(=O)N(C)c3cc(Cl)ccc3OC)n2)cc1 30%, COc1cccc(-n2c(=O)c3cc(OC)c(OC)cc3n(CC(=O)Nc3ccc(F)cc3)c2=O)c1 1.17%, CCCn1c2ccc(F)cc2c2nnc(SCCN3CCCCC3)nc21 -18.5%, CCC(=O)N1CCc2cc(Br)cc(S(=O)(=O)CCC(=O)Nc3cccc(Cl)c3)c21 -5.52%, CCCc1cnc2c(c1SCC(=O)Nc1ccccc1OCC)c(=O)n(C)c(=O)n2C -6.83%, CCS(=O)(=O)N1CCCc2cc(C(=O)Nc3cccc(C(C)=O)c3)ccc21 13.7%, COc1cc(NC(=O)c2cccc(Cl)c2Cl)ccc1NC(=O)c1cc2ccccc2o1 4.08%, CCOc1ccc(C(=O)N(Cc2ccc(C(C)C)cc2)Cc2ccco2)cc1 -13.5%, Clc1ccc(-c2nnn3c2nc(NC2CCCCC2)c2ccccc23)cc1 -5.09%, CCOc1ccc(Nc2ncnc3c2c(-c2ccccc2)cn3-c2cccc(C)c2)cc1 -13.5%, Cc1cc2c(cc1NS(=O)(=O)c1ccc(Br)cc1)n(C)c(=O)c(=O)n2C -12.3%, CC(C)(C)c1ccc(S(=O)(=O)/C=C/C#N)cc1 -24.6%, Cc1cccc(C)c1NC(=O)CN1CCCC1 -11.8%, CCCSCCCNC(=O)c1ccc(C)c(NC(=O)c2nsc3ccccc23)c1 -23.3%, CCOc1ccc(CCn2c3c(c(=O)[nH]c2=O)C(NC(=O)c2cccc(F)c2)(C(F)(F)F)C(=O)N3)cc1OCC (configuration not stated) 2.89%, Cc1c(CCNC(=O)c2c(F)cccc2F)sc2nc(-c3ccc(F)cc3)nn12 -22%, CC(=O)N(c1onc(C)c1C)S(=O)(=O)c1ccc(N)cc1 26.1%, COc1cc(-c2nc3sccn3c2Nc2c(C)cccc2C)ccc1O -17%, Cc1cc(O)cc(C)c1Cl 25.1%, O=C(Cc1ccc(-c2ccccc2)cc1)NCCS(=O)(=O)N1CCN(c2ccc(F)cc2)CC1 -7.33%, Cn1ncc2c(N3CCN(c4ccc(F)cc4)CC3)ncnc21 14.2%, CC(=O)N1CCCc2ccc(NS(=O)(=O)c3cccc(Cl)c3)cc21 0.338%, O=C1Cc2cc(S(=O)(=O)N3CCN(c4cccc(Cl)c4)CC3)ccc2N1 -6.64%, CC(=O)N1CCCC1c1nc2ccccc2n1Cc1ccccc1Cl (configuration not stated) -36.2%, Cc1cc(Nc2ccc(Br)cc2)nc(C)n1 -7.53%, Cc1cccc(C)c1-n1ncc(C(=O)NCCCN2CCC(C)CC2)c1C1CCN(C(=O)OC(C)(C)C)CC1 -11.1%, CCC1CN(C(=O)N2CCC(C(=O)NCCc3ccc(OC)cc3OC)CC2)c2cc(C)ccc2O1 (configuration not stated) -23.4%, Cc1cccc(OCc2nc(CC(=O)Nc3ccc(Cl)cc3)cs2)c1 15.9%, COc1cccc(CSc2nc3ccncc3n2CC(=O)Nc2ccc(OC)c(OC)c2OC)c1 -20.4%, CCOC(=O)c1cnc2c(ccc3ccccc32)c1Nc1ccc(C(C)=O)cc1 6.55%, COc1ccccc1CNC(=O)Cc1csc2nc(-c3ccc(F)cc3)cn12 -20.4%, CCc1cc2c(cc3c(=O)n(CC(=O)NC(C)c4ccccc4)ncn32)s1 (configuration not stated) -12.3%, O=S(=O)(c1ccc(Cl)cc1)c1nc(-c2cccs2)oc1N1CCCCC1 -16.1%, CCOC(=O)c1sc2ccccc2c1S(=O)(=O)NCc1ccccc1OC -16.1%, CCc1ccccc1NC(=O)C1CCN(S(=O)(=O)c2cn(C)cn2)CC1 -6.34%, COc1cccc(NC(=O)CCN2C(=O)c3ccccc3Sc3ncccc32)c1 5.16%, Cc1cc(C)nc(-n2nc(C)c3c2N(Cc2ccccc2F)C(=O)CC3c2ccc(Cl)cc2)n1 (configuration not stated) -20.4%, CCOC(=O)C1CCCN(C(=O)c2ccc3c(c2)sc2nc(-c4cccc(OC)c4)cn23)C1 (configuration not stated) -8.16%, CCOCCc1nn2c(=O)cc(COC(=O)c3ccccc3OC)nc2s1 -6.63%, COCCCn1c(SCc2cccc(Cl)c2)nc2c(sc3ccccc32)c1=O -0.758%, Cc1ccccc1-c1noc(CSc2nc3ccccc3[nH]2)n1 31.4%, O=C(NCCc1ccccc1)c1cc(Nc2ccccc2)nc2ccccc12 6.91%, CCc1ccccc1Nc1nn2c(=O)c3ccc(C(=O)NCCC4=CCCCC4)cc3nc2s1 -8.63%, Cc1cc(=O)n2nc(N(C)CC(=O)NCc3ccccc3C)sc2n1 0%, CCCC(=O)Nc1cccc(OCc2cc(=O)n3cccc(C)c3n2)c1 -9.1%

activation, active:
COc1ccc(CCCc2nnc(SCC(=O)Nc3cccc(F)c3C)o2)cc1 65.7%
